Test results taken from PubChem BioAssay AID1487 (National Center for Advancing Translational Sciences (NCATS), 2009).
The whole screen tested about 200,000 compounds, of which about 25 (0.01%) were called active. Not shown: some 23% with an inconclusive outcome. The call rests on the fitted dose curve; in most records, active means well fitted inhibition curve with a large enough effect in the signal ratio, with a control signal flat (not every such curve was filed as active); inconclusive means small, poorly fitted or top-dose-only effect, or effect the other way, or a change in a side signal; inactive means flat fitted curve, though single readings scatter; the % refers to the signal ratio. This is a selection; strong and weak results do not stand in their true shares.

test: qHTS Assay for Modulators of Lamin A Splicing; conditions: HeLa LMNA splicing GFP/RFP minigene ratio, 48 h; series mostly up to 46.1 µM; ratio change, negative = inhibition: at the top concentration
How it was run: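 S3 HeLa cells stably expressing lamin A-EGFP splicing minigene plus DsRed2, 600 cells/well, 48 h compound exposure at 37C. Laser-scanning cytometry; analysed as GFP (500-530 nm)/RFP (575-640 nm) total intensity ratio; 0.5% DMSO vehicle.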
On the % scale 0 is the no-effect control and ±100 the full control effect; potency means the concentration at half of the fitted maximal effect.

Structure (SMILES)	ratio change, negative = inhibition	Potency
COc1ccc(-c2cc(=O)c3cc(OC)ccc3o2)cc1	inactive: 6.29% [at 46 µM]	–
O=C(O)/C=C\c1ccc(O)c(O)c1	inactive: -9.84%	–
Cc1cccc(C)c1OCC(C)N (stereo unspecified)	inactive: -9.57%	–
COc1cc2c(cc1OC)C1Cc3ccc(OC)c(OC)c3CN1CC2 (stereo unspecified)	inactive: -11.9%	–
CN(C)CCO[C@@H](c1ccc(Cl)cc1)c1ccccn1	inactive: -7.67%	–
O=C(O)C1CCCNC1 (stereo unspecified)	–	inactive
O=c1ccc2cc(O)c(O)cc2o1	inactive: -16.9%	–
COc1ccc(C2CNC(=O)C2)cc1OC1CCCC1 (stereo unspecified)	–	inactive
CC(=O)OC[C@H]1O[C@@H](Sc2cccc3cccnc23)[C@H](OC(C)=O)[C@@H](OC(C)=O)[C@@H]1OC(C)=O	inactive: -6.54%	–
O=C1OCCN1/N=C/c1ccc([N+](=O)[O-])o1	inactive: -11.8%	–
O=C1C2=C(c3ccccc31)[N+](=O)C1CCCCC1N2[O-] (stereo unspecified)	inactive: 8.79%	–
O=C(NNc1c2ccccc2nc2ccccc12)c1ccccc1O	–	active: 17.8 µM
CN(C)c1nc(N(C)C)nc(N(C)C)n1	inactive: 2.79%	–
O=C(O)c1cc(-c2ccccc2)nc2ccccc12	inactive: 0.635%	–
C[C@H]1C[C@@H]2[C@H]([C@@H](O)C[C@@]3(C)[C@H]2CC[C@]3(O)C(=O)CO)[C@@]2(C)C=CC(=O)C=C12	inactive: 1.72%	–
CCCNCC(O)COc1ccccc1C(=O)CCc1ccccc1 (stereo unspecified)	inactive: 2.79%	–
CC(C)NC[C@@H](O)COc1cccc2ccccc12	–	inactive
Cc1nc2nc(C)c(CCC(=O)NCCCN3CCN(c4cccc(Cl)c4)CC3)c(C)n2n1	inactive: -3.5%	–
CC1(C)CC(=O)c2sc(NC(=O)CCS(=O)(=O)c3ccccc3)nc2C1	–	active: 4.47 µM
COc1ccc([C@H]2Sc3ccccc3N(CCN(C)C)C(=O)[C@H]2OC(C)=O)cc1	inactive: -10%	–
CC(=O)OCC1OC(Sc2cccc3cccnc23)C(OC(C)=O)C(OC(C)=O)C1OC(C)=O (stereo unspecified)	inactive: -4.11%	–
COc1ccc2c(OC)c3ccoc3nc2c1OC	inactive: 3.63% [at 46 µM]	–
Cc1nnc(NS(=O)(=O)c2ccc(N)cc2)s1	–	inactive
CC(C(=O)O)c1ccc(N2Cc3ccccc3C2=O)cc1 (stereo unspecified)	inactive: -2.08%	–
CCn1nc(C(=O)O)c(=O)c2cc3c(cc21)OCO3	inactive: -12%	–
CC(=O)O[C@H]1C[C@@]2(C)[C@H](C[C@@H](O)[C@H]3[C@@]4(C)CC[C@@H](O)[C@@H](C)[C@H]4CC[C@@]32C)C1=C(CCC=C(C)C)C(=O)O	inactive: -10.1%	–

Structure (SMILES)	ratio change, negative = inhibition	Potency
O=C(O)[C@@H]1CCCNC1	inactive: -8.13%	–
Cc1nnc2c3ccccc3c(-c3cccs3)nn12	–	active: 7.94 µM
CCN(CC)CCOc1ccc2nc(N(C)C)sc2c1	inactive: -11.1%	–
CC(C)CC(=O)N[C@H](C(=O)N[C@H](C(=O)N[C@@H](CC(C)C)[C@@H](O)CC(=O)N[C@@H](C)C(=O)N[C@@H](CC(C)C)[C@@H](O)CC(=O)O)C(C)C)C(C)C	inactive: -8.83%	–
Cc1ccc(C(=O)N/C(=C/C=C/c2ccccc2)C(=O)NCc2ccco2)cc1	inactive: -1.32%	–
Nc1ccc(S(=O)(=O)Nc2ccnn2-c2ccccc2)cc1	inactive: -13%	–
Cc1cc(/C=C(/C#N)C(=O)Nc2ccccc2)c(C)n1-c1cccnc1	inactive: -5.18%	–
CC(C)NC[C@H](O)c1cc(O)cc(O)c1	inactive: -11.3%	–
O=C(O)C1=CCCNC1	inactive: -9.51%	–
CC12CCC(CC1)C(C)(C)O2	inactive: -11.6%	–
CCOC(=O)/C(=C/C=C/c1ccccc1)NC(=O)c1ccccc1	inactive: 0.726%	–
NCCC(=O)NCCc1cnc[nH]1	inactive: -6.76%	–
O=C(Cn1ccnc1[N+](=O)[O-])NCCO	inactive: -6.07%	–
CCCNC(C)C(=O)Nc1ccccc1C (stereo unspecified)	inactive: -0.538%	–
COc1ccc(CN(CCN(C)C)c2ccccn2)cc1	–	inactive
CC(=O)c1ccc(S(=O)(=O)NC(=O)NC2CCCCC2)cc1	inactive: -18.9%	–
CCN1/C(=C\C(C)=O)Sc2ccc(OC)cc21	inactive: 26.4%	–
N#C/C(=C\c1ccc(N2CCOCC2)o1)c1nc2ccccc2[nH]1	inactive: 32.9%	–
Cc1scc2c1N(C(=O)CN1CCN(C)CC1)c1ccccc1NC2=O	inactive: -16.4%	–
CCN1C(=O)N[C@@H](c2ccccc2)[C@@H](C(=O)OC)[C@H]1C	inactive: -0.0326% [at 9.22 µM]	–
CC(C)(C)NC[C@H](O)COc1nsnc1N1CCOCC1	inactive: -8.26%	–
COC(=O)[C@H](C)[C@H]1C[C@]1(C)[C@H](NC(=O)OCc1ccccc1)c1ccccc1	inactive: 12%	–
CCCC(=O)Nc1ncnc2c1ncn2[C@@H]1O[C@@H]2COP(=O)(O)O[C@H]2[C@H]1OC(=O)CCC	inactive: 1.48%	–
CN(C)C(=N)N=C(N)N	inactive: -0.593%	–
COc1ccc(NS(=O)(=O)c2ccc(N)cc2)nn1	–	inactive
Cn1nnnc1SCC1=C(C(=O)O)N2C(=O)[C@@H](NC(=O)[C@H](O)c3ccccc3)[C@H]2SC1	inactive: 4.22%	–

Structure (SMILES)	ratio change, negative = inhibition	Potency
Nc1ccc(S(=O)(=O)c2ccc(N)cc2)cc1	inactive: -12.6%	–
N#C/C(=C\c1ccc(N2CCCC2)c([N+](=O)[O-])c1)c1nc2ccccc2[nH]1	inactive: 19.3%	–
NCCS(=O)(=O)O	inactive: -20.1%	–
COc1nc(C)nc(Cl)c1NC1=NCCN1	inactive: -3.92%	–
Cc1ccc(S(=O)(=O)NC(=O)NN2CC3CCCC3C2)cc1 (stereo unspecified)	inactive: -7.35%	–
O=c1[nH]c2ccccc2c2ccccc12	inactive: -9.48% [at 46 µM]	–
C#CCN(C)Cc1ccccc1	inactive: -12.6%	–
CN/C(=C/[N+](=O)[O-])NCCSCc1ccc(CN(C)C)o1	inactive: 4.19%	–
O=C(CCCN1CC=C(n2c(=O)[nH]c3ccccc32)CC1)c1ccc(F)cc1	inactive: -7.14% [at 46 µM]	–
CCN(CC)CCNC(=O)c1cc(S(C)(=O)=O)ccc1OC	inactive: -7.5%	–
Oc1c(I)cc(I)c2cccnc12	inactive: -4.34%	–
CCN(Cc1ccncc1)C(=O)C(CO)c1ccccc1 (stereo unspecified)	–	inactive
O=C1S/C(=C\c2ccccc2)C(=O)N1CC(O)Cn1c2ccccc2c2ccccc21 (stereo unspecified)	inactive: -15.9%	–
COC(=O)C1=C(C)N(Cc2ccco2)C(=O)N[C@H]1c1ccccc1	inactive: -2.69%	–
Cc1ccc(/C(=C\CN2CCCC2)c2ccccn2)cc1	–	inactive
CC(=O)Nc1c(I)c(NC(C)=O)c(I)c(C(=O)O)c1I	inactive: -2.55%	–
Cc1ccc(C(=O)Nc2ccc(S(=O)(=O)O)c3cc(S(=O)(=O)O)cc(S(=O)(=O)O)c23)cc1NC(=O)c1cccc(NC(=O)Nc2cccc(C(=O)Nc3cc(C(=O)Nc4ccc(S(=O)(=O)O)c5cc(S(=O)(=O)O)cc(S(=O)(=O)O)c45)ccc3C)c2)c1	inactive: -1.51%	–
O=c1cc(O)nc(SCc2ccccc2)n1-c1ccccc1	inactive: 5.07%	–
Cn1c(SCC(=O)N/N=C/C=C/c2ccco2)nc2ccccc21	inactive: 6.47%	–
O=C1/C(=C/c2cccnc2)SC(=S)N1C1CCS(=O)(=O)C1 (stereo unspecified)	–	active: 20 µM
C[C@]12C=CC(=O)C=C1CC[C@@H]1[C@@H]2C(=O)C[C@@]2(C)[C@H]1CC[C@]2(O)C(=O)CO	inactive: -9.59%	–
NCC(O)c1ccc(O)c(O)c1 (stereo unspecified)	inactive: -25.6%	–
O=C(O)C1=CCNCC1	inactive: -4.46%	–
NS(=O)(=O)c1cc2c(cc1Cl)NCNS2(=O)=O	–	inactive
